From article PMC4011580
Results are given in words; binding and its absence hold for the method and conditions named. In cells and extracts the contact can be indirect. Some entries that bind do so weakly or less than the wild type. For part of these data: Sequences can lack the tags named with a protein.

Amino acid sequences for entries named in this document (tags omitted). A change or cut given only in a name is not applied to a line headed by its entry. Chains listed by the source or under a name are the forms on record and can include a tag or linker.
UniProt Q9Y297: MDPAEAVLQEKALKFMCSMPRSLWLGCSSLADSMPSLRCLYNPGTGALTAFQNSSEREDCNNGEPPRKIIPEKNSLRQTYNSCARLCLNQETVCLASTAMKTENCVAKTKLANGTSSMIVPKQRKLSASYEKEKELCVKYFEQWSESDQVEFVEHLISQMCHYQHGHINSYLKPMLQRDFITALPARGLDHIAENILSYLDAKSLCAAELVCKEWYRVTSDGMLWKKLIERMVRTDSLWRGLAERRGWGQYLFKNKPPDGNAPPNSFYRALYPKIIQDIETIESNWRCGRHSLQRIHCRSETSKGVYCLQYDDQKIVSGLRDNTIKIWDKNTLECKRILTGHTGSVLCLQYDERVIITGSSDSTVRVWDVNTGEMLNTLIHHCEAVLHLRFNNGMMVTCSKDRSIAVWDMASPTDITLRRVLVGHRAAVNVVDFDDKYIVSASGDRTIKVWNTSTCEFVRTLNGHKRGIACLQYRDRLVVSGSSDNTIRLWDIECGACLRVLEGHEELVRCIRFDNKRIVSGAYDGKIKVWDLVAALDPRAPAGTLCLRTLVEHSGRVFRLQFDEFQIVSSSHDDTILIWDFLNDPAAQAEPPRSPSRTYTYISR
Flag-β-TRCP1 (wild type) (Q9Y297, form named): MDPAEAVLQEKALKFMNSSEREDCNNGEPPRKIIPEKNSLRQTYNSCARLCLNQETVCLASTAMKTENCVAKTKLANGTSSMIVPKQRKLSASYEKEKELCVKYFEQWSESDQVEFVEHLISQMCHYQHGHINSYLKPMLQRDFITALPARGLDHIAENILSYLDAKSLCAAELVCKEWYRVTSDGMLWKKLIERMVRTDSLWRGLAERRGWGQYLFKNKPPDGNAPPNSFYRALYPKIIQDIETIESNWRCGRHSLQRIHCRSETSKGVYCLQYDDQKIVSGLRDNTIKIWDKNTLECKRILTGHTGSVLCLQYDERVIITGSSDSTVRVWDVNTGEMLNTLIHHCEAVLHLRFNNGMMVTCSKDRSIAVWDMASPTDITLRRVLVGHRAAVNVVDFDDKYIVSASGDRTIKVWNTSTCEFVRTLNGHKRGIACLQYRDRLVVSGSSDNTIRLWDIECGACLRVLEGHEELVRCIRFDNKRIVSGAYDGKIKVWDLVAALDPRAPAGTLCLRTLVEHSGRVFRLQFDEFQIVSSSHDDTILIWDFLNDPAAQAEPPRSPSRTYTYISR
UniProt P48729: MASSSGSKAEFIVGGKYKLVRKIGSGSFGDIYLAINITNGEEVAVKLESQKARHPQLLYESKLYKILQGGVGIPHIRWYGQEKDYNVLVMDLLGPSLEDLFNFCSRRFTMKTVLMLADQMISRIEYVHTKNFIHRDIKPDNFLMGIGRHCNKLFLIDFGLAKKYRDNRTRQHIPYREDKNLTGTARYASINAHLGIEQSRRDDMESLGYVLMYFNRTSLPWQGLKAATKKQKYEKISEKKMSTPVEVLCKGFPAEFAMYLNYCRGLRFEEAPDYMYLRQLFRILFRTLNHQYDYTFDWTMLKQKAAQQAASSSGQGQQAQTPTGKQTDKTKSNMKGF
UniProt P48730: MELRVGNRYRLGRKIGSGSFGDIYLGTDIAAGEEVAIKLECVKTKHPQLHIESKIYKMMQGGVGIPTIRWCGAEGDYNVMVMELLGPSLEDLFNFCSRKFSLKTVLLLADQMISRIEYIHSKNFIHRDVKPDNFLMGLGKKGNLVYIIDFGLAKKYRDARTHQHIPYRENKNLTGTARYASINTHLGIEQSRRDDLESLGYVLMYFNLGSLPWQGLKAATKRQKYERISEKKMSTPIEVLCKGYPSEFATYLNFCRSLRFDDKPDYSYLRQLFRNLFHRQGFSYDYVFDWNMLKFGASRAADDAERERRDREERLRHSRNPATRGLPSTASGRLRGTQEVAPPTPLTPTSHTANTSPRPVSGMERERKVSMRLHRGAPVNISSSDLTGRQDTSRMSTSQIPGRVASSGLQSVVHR
UniProt P49674: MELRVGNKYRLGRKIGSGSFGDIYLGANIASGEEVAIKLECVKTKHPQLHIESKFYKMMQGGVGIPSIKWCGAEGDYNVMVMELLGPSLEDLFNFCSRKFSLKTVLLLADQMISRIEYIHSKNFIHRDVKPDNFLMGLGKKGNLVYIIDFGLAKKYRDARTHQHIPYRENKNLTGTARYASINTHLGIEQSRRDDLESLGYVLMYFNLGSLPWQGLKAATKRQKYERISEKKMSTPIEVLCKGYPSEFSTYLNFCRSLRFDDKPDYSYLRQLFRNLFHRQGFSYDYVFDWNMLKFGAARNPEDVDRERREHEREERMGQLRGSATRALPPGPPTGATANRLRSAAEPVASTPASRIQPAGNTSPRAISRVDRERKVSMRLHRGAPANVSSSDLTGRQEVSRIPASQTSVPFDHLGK
UniProt P63208: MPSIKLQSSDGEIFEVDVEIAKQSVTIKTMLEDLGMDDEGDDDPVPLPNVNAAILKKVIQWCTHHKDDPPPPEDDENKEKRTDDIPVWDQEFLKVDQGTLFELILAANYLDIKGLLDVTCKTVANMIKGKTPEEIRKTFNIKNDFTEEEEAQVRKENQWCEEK
UniProt Q13617: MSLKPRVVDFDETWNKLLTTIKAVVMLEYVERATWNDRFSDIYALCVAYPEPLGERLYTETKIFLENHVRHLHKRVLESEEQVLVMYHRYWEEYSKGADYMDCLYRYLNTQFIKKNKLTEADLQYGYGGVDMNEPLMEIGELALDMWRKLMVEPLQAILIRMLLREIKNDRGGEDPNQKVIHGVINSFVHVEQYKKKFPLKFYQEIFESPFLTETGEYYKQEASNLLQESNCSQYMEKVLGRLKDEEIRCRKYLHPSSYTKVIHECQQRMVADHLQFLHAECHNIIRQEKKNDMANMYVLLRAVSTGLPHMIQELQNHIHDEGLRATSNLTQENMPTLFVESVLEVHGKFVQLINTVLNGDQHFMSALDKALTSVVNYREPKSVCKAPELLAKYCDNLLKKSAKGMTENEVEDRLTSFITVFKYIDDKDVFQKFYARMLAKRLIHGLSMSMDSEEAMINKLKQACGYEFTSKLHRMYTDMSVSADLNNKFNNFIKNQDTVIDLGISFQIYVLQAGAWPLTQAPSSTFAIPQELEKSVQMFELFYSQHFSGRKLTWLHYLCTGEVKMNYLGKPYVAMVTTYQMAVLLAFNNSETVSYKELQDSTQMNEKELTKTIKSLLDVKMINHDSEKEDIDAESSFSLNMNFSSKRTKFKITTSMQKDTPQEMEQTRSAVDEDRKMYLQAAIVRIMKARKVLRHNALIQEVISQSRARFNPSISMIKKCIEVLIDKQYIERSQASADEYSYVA
UniProt P46934: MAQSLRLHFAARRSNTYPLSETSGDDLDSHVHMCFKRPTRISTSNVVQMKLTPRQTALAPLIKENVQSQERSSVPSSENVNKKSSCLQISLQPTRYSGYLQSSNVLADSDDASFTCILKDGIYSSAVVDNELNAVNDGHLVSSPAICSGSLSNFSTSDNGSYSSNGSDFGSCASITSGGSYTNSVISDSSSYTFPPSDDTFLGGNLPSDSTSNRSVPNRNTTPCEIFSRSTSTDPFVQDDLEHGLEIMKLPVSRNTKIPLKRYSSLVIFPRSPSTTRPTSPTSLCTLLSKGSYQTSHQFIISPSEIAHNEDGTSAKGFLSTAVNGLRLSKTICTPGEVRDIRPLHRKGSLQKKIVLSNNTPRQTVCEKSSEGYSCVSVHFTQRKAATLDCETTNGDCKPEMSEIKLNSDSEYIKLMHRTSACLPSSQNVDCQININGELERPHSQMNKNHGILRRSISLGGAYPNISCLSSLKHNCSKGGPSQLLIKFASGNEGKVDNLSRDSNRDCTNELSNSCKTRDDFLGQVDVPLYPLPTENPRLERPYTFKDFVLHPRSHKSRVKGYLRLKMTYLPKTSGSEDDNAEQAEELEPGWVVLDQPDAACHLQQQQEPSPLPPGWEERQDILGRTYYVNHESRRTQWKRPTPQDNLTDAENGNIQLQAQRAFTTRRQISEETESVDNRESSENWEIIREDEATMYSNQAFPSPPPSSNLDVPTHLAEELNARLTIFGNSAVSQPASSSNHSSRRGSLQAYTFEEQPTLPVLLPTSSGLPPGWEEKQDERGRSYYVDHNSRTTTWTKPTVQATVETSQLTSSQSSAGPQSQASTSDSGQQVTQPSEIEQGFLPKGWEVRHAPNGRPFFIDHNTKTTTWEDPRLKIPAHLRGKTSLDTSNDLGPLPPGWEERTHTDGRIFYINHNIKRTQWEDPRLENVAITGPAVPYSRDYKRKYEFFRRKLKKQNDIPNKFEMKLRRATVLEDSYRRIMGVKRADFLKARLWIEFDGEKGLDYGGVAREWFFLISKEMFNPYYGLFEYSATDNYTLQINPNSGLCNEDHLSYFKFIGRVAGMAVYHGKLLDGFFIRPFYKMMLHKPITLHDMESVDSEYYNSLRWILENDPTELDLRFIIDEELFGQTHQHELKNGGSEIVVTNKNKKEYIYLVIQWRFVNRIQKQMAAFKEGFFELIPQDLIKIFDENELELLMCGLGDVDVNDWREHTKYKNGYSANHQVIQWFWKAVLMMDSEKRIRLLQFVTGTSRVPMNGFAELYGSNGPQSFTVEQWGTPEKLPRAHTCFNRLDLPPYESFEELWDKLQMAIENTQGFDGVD
HA-NEDD4 (wild type) (P46934-4, form named): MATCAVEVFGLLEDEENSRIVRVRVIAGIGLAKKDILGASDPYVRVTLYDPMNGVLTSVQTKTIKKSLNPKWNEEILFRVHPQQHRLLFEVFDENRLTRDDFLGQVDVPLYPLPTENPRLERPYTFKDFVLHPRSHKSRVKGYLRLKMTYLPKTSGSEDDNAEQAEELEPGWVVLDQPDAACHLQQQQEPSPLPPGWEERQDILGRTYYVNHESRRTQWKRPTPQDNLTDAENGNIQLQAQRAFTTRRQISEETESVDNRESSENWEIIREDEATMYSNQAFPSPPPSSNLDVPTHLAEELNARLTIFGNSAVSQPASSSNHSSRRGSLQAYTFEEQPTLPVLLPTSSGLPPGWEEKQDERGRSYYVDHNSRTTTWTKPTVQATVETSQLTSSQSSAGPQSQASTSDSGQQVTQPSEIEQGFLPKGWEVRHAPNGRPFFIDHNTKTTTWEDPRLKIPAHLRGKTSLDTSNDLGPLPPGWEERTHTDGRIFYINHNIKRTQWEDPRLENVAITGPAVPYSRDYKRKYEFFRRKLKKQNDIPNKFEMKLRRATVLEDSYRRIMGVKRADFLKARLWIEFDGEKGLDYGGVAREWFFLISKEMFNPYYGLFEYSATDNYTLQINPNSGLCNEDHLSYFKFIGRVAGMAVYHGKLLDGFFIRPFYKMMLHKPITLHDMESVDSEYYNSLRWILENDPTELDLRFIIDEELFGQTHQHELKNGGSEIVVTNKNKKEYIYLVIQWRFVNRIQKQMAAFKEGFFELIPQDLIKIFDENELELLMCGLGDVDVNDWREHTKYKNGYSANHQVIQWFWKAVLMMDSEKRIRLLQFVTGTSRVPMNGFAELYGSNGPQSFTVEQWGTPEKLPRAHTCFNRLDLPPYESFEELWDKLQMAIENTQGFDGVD
HA-S408A-NEDD4 (P46934-4, form named): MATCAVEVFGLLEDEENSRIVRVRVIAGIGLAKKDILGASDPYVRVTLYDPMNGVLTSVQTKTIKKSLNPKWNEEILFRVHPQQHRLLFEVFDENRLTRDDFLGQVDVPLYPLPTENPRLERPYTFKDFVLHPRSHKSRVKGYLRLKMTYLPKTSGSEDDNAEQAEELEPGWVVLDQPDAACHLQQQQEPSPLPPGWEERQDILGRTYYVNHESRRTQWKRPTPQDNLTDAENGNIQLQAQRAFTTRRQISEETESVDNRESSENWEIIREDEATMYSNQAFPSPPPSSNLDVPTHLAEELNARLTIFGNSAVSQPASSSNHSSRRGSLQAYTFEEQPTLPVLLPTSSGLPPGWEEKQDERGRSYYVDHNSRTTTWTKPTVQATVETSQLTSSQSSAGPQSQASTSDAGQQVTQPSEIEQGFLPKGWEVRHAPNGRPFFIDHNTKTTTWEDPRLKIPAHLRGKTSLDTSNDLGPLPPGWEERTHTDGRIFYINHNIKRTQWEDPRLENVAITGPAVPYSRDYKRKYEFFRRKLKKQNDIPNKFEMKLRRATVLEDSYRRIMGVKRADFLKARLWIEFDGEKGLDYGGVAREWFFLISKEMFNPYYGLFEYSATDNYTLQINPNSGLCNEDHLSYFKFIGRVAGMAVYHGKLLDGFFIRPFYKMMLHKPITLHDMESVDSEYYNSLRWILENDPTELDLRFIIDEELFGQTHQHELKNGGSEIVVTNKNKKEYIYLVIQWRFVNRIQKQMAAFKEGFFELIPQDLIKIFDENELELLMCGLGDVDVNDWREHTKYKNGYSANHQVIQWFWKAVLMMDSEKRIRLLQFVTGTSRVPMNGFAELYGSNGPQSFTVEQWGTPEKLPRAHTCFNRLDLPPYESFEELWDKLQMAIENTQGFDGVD

Columns and labels:
GST-Fbl18 = target: T1, GST-Fbl18 (UniProt Q96ME1); experiment: co-IP; 293T cells transfected with Flag-NEDD4 and GST-F-box protein constructs; immunoblot of whole cell lysates and immunoprecipitates (Figure 1B); which partner was precipitated is not stated
T1 sequence: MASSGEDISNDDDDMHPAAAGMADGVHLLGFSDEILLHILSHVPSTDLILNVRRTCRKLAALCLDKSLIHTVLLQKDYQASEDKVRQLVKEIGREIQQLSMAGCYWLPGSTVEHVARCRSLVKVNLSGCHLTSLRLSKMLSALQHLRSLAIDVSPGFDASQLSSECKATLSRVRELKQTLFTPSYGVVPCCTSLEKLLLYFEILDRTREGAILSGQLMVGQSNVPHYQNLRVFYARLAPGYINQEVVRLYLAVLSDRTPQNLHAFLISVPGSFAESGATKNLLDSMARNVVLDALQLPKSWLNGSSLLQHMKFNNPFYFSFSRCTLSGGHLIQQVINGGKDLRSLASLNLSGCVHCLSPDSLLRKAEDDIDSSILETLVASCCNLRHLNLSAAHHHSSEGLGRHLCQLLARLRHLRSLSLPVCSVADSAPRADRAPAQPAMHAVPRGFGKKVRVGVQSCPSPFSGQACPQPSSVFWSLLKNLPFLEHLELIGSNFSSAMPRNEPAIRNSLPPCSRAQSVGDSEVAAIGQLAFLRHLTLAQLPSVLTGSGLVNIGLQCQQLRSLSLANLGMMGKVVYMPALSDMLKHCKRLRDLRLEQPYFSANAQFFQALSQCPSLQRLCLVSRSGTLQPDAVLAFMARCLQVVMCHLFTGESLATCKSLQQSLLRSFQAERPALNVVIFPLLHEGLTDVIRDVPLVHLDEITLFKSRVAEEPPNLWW

GST-β-TRCP1 = GST-β-TRCP1 (UniProt Q9Y297); experiment: as above
Flag-β-TRCP1 (wild type) [1] = target: Flag-β-TRCP1 (wild type) (UniProt Q9Y297); experiment: co-IP; HeLa cells transfected with HA-NEDD4 (wild type or mutant) and Myc-tagged CKI isoforms or Flag-β-TRCP1; EBC lysis, antibody overnight at 4 °C, Protein A sepharose, NETN washes; immunoblot (Figures 3C, 4B)
Myc-CKIα = Myc-CKIα (UniProt P48729); experiment: as above
Myc-CKIδ = Myc-CKIδ (UniProt P48730); experiment: as above
Myc-CKIε = Myc-CKIε (UniProt P49674); experiment: as above
Flag-β-TRCP1 (wild type) [2] = target: Flag-β-TRCP1 (wild type) (UniProt Q9Y297); experiment: co-IP; 293T cells transfected with HA-NEDD4 and a Flag- or Myc-tagged partner; EBC lysis, antibody overnight at 4 °C, Protein A sepharose, NETN washes; immunoblot (Figure 1D-G); in Figure 1E lysates were pre-treated with λ-phosphatase where indicated
Myc-Skp1 = Myc-Skp1 (UniProt P63208); experiment: as above
Myc-Cullin 1 = Myc-Cullin 1 (UniProt Q13616); experiment: co-IP; 293T cells transfected with Myc-tagged Cullin constructs or empty vector; lysis in EBC buffer (50 mM Tris pH 8.0, 120 mM NaCl, 0.5% NP-40), antibody overnight at 4 °C, Protein A sepharose, NETN washes; immunoblot (Figure 1A)
Myc-Cullin 2 = Myc-Cullin 2 (UniProt Q13617); experiment: as above
Myc-Cullin 3 = Myc-Cullin 3 (UniProt Q13618); experiment: as above
Myc-Cullin 4A = Myc-Cullin 4A (UniProt Q13619); experiment: as above
Myc-Cullin 5 = Myc-Cullin 5 (UniProt Q93034); experiment: as above
[3] = target: NEDD4 (endogenous, HeLa) (human (endogenous in HeLa)) (UniProt P46934); experiment: co-IP; endogenous proteins; HeLa cell extracts immunoprecipitated with antibody against NEDD4 or control IgG; immunoblot (Figure 1C)

“Flag-NEDD4 (from UniProt P46934-4 1-900)” was tested, and the binding (GST-Fbl18) was “binds weakly” and the binding (GST-β-TRCP1) was “binds”.

With “HA-NEDD4 (wild type) (from UniProt P46934-4 1-900)” the binding (Flag-β-TRCP1 (wild type) [1]) was “binds”, the binding (Myc-CKIα) was “no binding” and the binding (Myc-CKIδ) was “binds”. For the same substance, the binding (Myc-CKIε) was “no binding”, the binding (Flag-β-TRCP1 (wild type) [2]) was “binds” and the binding (Myc-Skp1) was “binds”.

For “HA-S408A-NEDD4 (from UniProt P46934-4 1-900)”, the binding (Flag-β-TRCP1 (wild type) [1]) was “binds”.

“NEDD4 (in 293T cells transfected with Myc-Cullin constructs) (from UniProt P46934 1-1319)” was tested, and the binding (Myc-Cullin 1) was “binds”, the binding (Myc-Cullin 2) was “no binding” and the binding (Myc-Cullin 3) was “no binding”. For the same substance, the binding (Myc-Cullin 4A) was “no binding” and the binding (Myc-Cullin 5) was “no binding”.

“β-TRCP1 (endogenous, HeLa) (from UniProt Q9Y297 1-605)” was tested, and the binding [3] was “binds”.
